Results from paper PMC4336329 (PLoS ONE, 2015).
Screen size: about 310,000 compounds; about 14,000 (4.5%) showed an effect of 50% or more. The effect is printed as a negative number. This is one part of the list.

molecular target: human ether-à-go-go-related gene (hERG) potassium channel (human, UniProt Q12809); test: primary screen, population patch clamp on CHO cells stably expressing hERG
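Further: peak tail current of the secondary pulse compared with the same well before compound.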

human ether-à-go-go-related gene (hERG) potassium channel, sequence (Q12809 whole entry, looked up): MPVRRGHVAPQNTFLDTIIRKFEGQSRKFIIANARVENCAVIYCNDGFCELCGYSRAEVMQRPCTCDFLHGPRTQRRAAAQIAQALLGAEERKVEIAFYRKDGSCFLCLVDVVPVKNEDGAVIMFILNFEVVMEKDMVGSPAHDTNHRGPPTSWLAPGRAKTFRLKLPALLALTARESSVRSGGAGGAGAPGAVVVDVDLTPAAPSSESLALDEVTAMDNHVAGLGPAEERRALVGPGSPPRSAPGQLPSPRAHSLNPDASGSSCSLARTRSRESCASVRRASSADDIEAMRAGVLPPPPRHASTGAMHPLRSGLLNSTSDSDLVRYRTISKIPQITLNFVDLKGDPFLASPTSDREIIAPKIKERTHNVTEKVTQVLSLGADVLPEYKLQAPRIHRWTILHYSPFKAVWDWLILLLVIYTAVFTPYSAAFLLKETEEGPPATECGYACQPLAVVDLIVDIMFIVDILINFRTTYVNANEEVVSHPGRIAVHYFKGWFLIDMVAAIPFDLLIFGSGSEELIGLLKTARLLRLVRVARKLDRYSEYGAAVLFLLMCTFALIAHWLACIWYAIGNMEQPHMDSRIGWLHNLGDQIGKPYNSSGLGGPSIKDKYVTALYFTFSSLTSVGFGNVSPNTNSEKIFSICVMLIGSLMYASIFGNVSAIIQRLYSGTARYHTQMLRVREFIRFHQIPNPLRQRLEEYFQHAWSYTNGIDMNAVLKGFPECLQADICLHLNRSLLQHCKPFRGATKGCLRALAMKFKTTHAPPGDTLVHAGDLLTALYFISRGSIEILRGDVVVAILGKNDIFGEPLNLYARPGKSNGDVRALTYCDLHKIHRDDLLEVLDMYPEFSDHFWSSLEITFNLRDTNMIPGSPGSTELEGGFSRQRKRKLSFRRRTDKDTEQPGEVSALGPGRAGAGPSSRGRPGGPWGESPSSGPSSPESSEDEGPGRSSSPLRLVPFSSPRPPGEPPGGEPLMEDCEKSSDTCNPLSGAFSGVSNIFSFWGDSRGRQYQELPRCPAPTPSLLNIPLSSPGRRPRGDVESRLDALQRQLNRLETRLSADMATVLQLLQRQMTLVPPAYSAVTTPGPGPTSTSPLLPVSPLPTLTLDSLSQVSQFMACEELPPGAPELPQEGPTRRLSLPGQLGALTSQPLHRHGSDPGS

SMILES | hERG current change (%, negative = inhibition) at 10uM [%]
CCOc1ccc(Br)cc1C(=O)N/N=C/c1cccnc1 | 1.64
CN1C(=O)C(=C2CCCCCC2)SC1=S | 6.39
Cc1ccccc1OCC(=O)Nc1ccccc1-c1ccccc1NC(=O)COc1ccccc1C | 1.48
CC(=O)N1CC(=O)Nc2ccc(Cl)cc2C1c1ccc(F)cc1 (stereo not shown) | -22.6
C/C(=N\NC(=O)COc1ccc2ccccc2c1)c1cccs1 | -22.3
O=C(NCc1ccco1)c1ccc(=O)oc1 | 2.12
Cc1cccc(NC(=O)C2CCCN2/C=C/C(=O)C(F)(F)F)c1C (stereo not shown) | 4.61
COc1ccc(NC(=O)NNC(=O)COc2ccc(Cl)cc2C)cc1OC | 7.77
O=C(CCN1C(=O)S/C(=C/c2ccc(F)cc2)C1=O)Nc1ccc(O)c(C(=O)O)c1 | 18.4
COc1ccc(NC(=O)COc2cc(O)c3c(c2)OC(C)(C)CC3=O)cc1 | -17.5
Cn1nc(-c2ccccc2)cc1NC(=O)CCCC(=O)O | 15.1
Cc1ccc2nc(-c3cccc(NC(=O)c4ccc5c(c4)OCCO5)c3)oc2c1 | 2.47
CCc1ccccc1NC(=O)C1NC(=O)CC1c1ccccc1 (stereo not shown) | -7.59
CC12CCC(=O)N1C(C(=O)Nc1nc(-c3ccccc3)cs1)CS2 (stereo not shown) | 10.1
CC1CN(C(=O)/C=C/c2ccc([N+](=O)[O-])s2)CC(C)O1 (stereo not shown) | -39
O=C(Nc1cc(-c2ccccc2)[nH]n1)c1ccc(Cl)cc1 | 1.2
COc1ccccc1C(=O)COC(=O)/C=C/c1ccccc1 | -19.2
Cc1c(C#N)c2ncn(Cc3ccccn3)c(=O)c2n1-c1ccccc1 | -10.8
COC(=O)C1=C(C)N(Cc2ccc(OC)cc2)C(=O)C1 | 14.8
C/C(=N\N1C(C)CCCC1C)c1ccccc1O (stereo not shown) | 14.1
Cn1/c(=N/NC(=O)c2ccccc2Br)sc2ccccc21 | 8.23
O=S(=O)(c1ccccc1)c1ccc(NCc2ccco2)cc1 | -4.21
CC1(C)COCN1S(=O)(=O)c1ccc(C(=O)Nc2nnc(-c3ccc(Cl)s3)o2)cc1 | -5.52
CCOc1ccc(NC(=S)NC(=O)c2c(Cl)c(C)nn2C)c([N+](=O)[O-])c1 | 8.55
O=C(c1ccccc1)c1ccccc1NC(=O)C1CCCN1Cc1ccccc1 (stereo not shown) | 3.87
